Paper PMC4336329 (PLoS ONE, 2015)
Among all 310,000 compounds or so, about 2,200 (0.71%) showed an effect of 50% or more. The effect is printed as a negative number. The list shows a part of the results.

Each molecule was assayed against human ether-à-go-go-related gene (hERG) potassium channel (human, UniProt Q12809) (assay: primary screen, population patch clamp on CHO cells stably expressing hERG).
Sequence of human ether-à-go-go-related gene (hERG) potassium channel (Q12809 whole entry, looked up): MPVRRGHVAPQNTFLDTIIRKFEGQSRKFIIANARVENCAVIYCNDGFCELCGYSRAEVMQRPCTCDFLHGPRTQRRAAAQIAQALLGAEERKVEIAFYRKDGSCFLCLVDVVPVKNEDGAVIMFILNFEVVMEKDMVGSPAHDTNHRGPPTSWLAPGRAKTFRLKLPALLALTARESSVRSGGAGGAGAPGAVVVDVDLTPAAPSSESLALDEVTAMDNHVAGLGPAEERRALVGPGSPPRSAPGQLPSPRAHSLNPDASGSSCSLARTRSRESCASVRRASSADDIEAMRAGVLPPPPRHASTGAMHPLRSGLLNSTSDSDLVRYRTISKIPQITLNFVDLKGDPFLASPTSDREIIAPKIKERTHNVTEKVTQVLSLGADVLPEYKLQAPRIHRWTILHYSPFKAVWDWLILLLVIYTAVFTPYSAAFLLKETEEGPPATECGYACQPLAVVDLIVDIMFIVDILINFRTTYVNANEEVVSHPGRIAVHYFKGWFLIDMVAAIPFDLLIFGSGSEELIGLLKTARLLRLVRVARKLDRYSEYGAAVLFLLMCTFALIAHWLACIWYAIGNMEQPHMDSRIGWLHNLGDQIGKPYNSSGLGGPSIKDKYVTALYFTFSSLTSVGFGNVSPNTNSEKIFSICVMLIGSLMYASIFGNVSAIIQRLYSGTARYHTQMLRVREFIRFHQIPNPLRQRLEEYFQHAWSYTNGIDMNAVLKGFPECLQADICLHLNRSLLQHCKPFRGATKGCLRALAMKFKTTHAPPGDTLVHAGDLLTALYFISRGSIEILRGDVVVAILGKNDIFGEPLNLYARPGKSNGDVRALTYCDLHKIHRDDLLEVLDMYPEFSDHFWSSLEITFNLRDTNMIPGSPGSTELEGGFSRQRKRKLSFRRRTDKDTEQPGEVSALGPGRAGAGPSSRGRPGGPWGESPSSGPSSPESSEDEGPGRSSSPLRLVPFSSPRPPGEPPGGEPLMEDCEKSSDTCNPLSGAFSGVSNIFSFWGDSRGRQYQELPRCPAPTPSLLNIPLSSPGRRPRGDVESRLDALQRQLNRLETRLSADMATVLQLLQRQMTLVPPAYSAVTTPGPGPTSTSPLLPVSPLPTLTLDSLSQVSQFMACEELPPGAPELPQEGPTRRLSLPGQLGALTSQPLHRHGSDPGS

| Compound | hERG current change (%, negative = inhibition) at 1uM |
| --- | --- |
| Cc1oc2c(c(C)cc3oc(=O)c(CC(=O)NCC(=O)NCC(=O)O)c(C)c32)c1C | 12.5% |
| CC(C)CNC(=S)NNC(=O)c1nn(C)cc1Cl | 3.49% |
| CCn1c(=O)c(C(=O)NCCCO)c(O)c2ccccc21 | 2.97% |
| CN(c1ccccc1)S(=O)(=O)c1cccc(NC(=O)CN2CCCc3ccccc32)c1 | 7.66% |
| Cc1c(NC2=CC(=O)CC(C)(C)C2)c(=O)n(-c2ccccc2)n1C | 4.34% |
| COc1ccc(/C=C\c2onc(C)c2S(=O)(=O)N2CCC(C(=O)NCc3ccco3)CC2)cc1 | 6.18% |
| O=C(COC(=O)Cc1ccsc1)Nc1ccc(S(=O)(=O)N2CCOCC2)cc1 | 11.8% |
| Clc1ccc(-n2nnnc2-c2cnc3ccc(Cl)cc3c2-c2ccccc2)cc1 | 5.7% |
| C=CCNC(=O)c1ccc(-c2nc3ccccc3nc2-c2ccccc2)cc1 | 29.9% |
| Cc1cc(C(=O)COC(=O)CCc2nc3ccccc3s2)c(C)n1C | 5.36% |
| O=C(NCc1ccc(F)cc1)c1ccc2c(c1)S(=O)(=O)c1ccccc1C2=O | 8.86% |
| O=c1c2[nH]c3ccc(Br)cc3c2ncn1CCCn1ccnc1 | -46.8% |
| O=C(NC1CC2CCCC(C1)N2C(=O)NC1CCCCC1)c1ccccc1 (centres unmarked) | 7.36% |
| FC(F)(F)c1cc(C(F)(F)F)c2ccc(N3CCN(c4ccccc4)CC3)nc2n1 | 5.19% |
| Cc1cc(C)n(CCNC(=O)c2ccco2)n1 | 12.3% |
| COc1ccccc1CCC(=O)OCC(=O)Nc1cc(S(=O)(=O)N2CCOCC2)ccc1C | 2.99% |
| COc1ccc(CN2CC(=O)N3[C@H]4c5ccc(OC)cc5OC[C@@H]4[C@H](c4ccccc4)[C@]3(C)C2=O)cc1 | 11.3% |
| O=C(Nc1cccc(S(=O)(=O)N2CCCCC2)c1)c1cc2ccccc2o1 | 21.7% |
| COc1ccc(CCNC(=O)CCN2C(=O)c3cccc4cccc(c34)C2=O)cc1OC | 8.46% |

| Compound | hERG current change (%, negative = inhibition) at 1uM |
| --- | --- |
| CCS(=O)(=O)N1CCCC(C(=O)NCCc2ccc(OC)c(OC)c2)C1 (centres unmarked) | 9.44% |
| CC1CC(C)CN(C(=O)C(C)N(C)CC(=O)Nc2ccc(Cl)cc2)C1.O=C(O)C(=O)O (centres unmarked) | 1.2% |
| CC1CCCCN1CCCNC(=O)c1nn(C)c2c1CSc1ccccc1-2 (centres unmarked) | -23.4% |
| CC(=O)N1N=C(c2ccccc2)CC1c1cccs1 (centres unmarked) | 8.67% |
| NC(=S)N=Nc1c(O)[nH]c2ccccc12 | 8.04% |
| COC(=O)C1=C(c2ccc(F)cc2F)C[C@@H]2CC[C@H]1N2C(=O)NCC1CC1 | 9.76% |
| O=c1c2ccccc2ncn1C1CCCCC1 | -2.4% |
| Cc1ccc(NS(=O)(=O)c2cc(-c3n[nH]c(=O)c4ccccc34)ccc2C)cc1 | 9.28% |
| COc1ccc(NS(=O)(=O)c2cn(C)nc2C)cc1 | 3.4% |
| COc1ccccc1CNC(=O)CCC1N=C2c3ccccc3N=C(SCC(=O)NCC3CCCO3)N2C1=O (centres unmarked) | 15.1% |
| COc1cccc(C2c3[nH]c4ccccc4c3CCN2Cc2cnn(C)c2)c1 (centres unmarked) | -49.4% |
| O=S(=O)(Nc1ncccn1)c1ccc(NC(=S)NCCc2ccccc2)cc1 | 1.39% |
| Cc1ccc(S(=O)(=O)N2CCCC2C(=O)NCCc2ccccc2)cc1 (centres unmarked) | 5.6% |
| CC(C)NC(=O)COC(=O)Cn1[nH]c(=O)c2ccccc2c1=O | 8.44% |
| Cc1cc(NC(=O)CCc2ccc(-c3ccccc3)o2)no1 | 8.34% |
| CC(=O)OCCCCCCCCCCC[N+]1(C)CCCCC1.[I-] | 7.79% |
| O=C1CC(c2cccs2)Cc2nc(NC(=O)C3CC3)ncc21 (centres unmarked) | 12.8% |
| CCc1nnc(NC(=O)CSc2nnc(CNc3cccc(Cl)c3)n2CC)s1 | -1.71% |
| COc1cc(C(=O)Nc2nccs2)cc(OC)c1OC | 14.2% |

| Compound | hERG current change (%, negative = inhibition) at 1uM |
| --- | --- |
| CCOC(=O)CCNC(=O)N1CCC(CCOc2ccccc2)(C(=O)OCC)CC1 | 9% |
| CN(NC1OC(=O)c2ccccc21)c1ncc(C(F)(F)F)cc1Cl (centres unmarked) | 9.23% |
| COc1cccc(NC(=S)NCCC(c2ccccc2)c2ccccc2)c1 | 5.15% |
| COc1cccc(-c2nnc(SCC(=O)Nc3cc(C)on3)n2C)c1 | -8.4% |
| O=C(Nc1ccccc1)NC1CCCCC1 | 9.43% |
| CCOC(=O)C1CCN(C(=O)C2CC(=O)N(c3ccc4c(c3)OCCO4)C2)CC1 (centres unmarked) | 2.02% |
| COCCn1c(=O)[nH]c2cc(C(=O)N3CCN(c4cccc(C)c4C)CC3)ccc2c1=O | 13.4% |
| CCNC(=S)N/N=C/c1ccco1 | 7.17% |
| CCn1cc(/C=C/c2cc[n+](C)cc2)c2ccccc21.[I-] | -0.0391% |
| CC(C)(C)SCCNC(=O)COc1ccc(Cl)cc1 | 8.67% |
| O=C(NCc1ccc(F)cc1)c1ccc(CS(=O)Cc2ccccc2Cl)o1 (centres unmarked) | 4.6% |
| COc1ccc(OC)c(/C=C/C(=O)OCC(=O)NC2CCCCCCC2)c1 | 18.3% |
| Cn1c(CCN2CCN(c3ccccn3)CC2)nc2cc(NC(=O)COc3ccc(Cl)cc3)ccc21 | 0.879% |
| CN1C(=O)N(C)C2(c3ccccc3)Nn3c(s/c(=C/c4ccccc4)c3=O)=NC12c1ccccc1 (centres unmarked) | 22.1% |
| Cc1nn(C)c(C)c1NC(=O)CCl.Cl | 11.3% |
| CC(C1CC2CCC1C2)n1c(-c2ccco2)n[nH]c1=S (centres unmarked) | 13.6% |
| N#Cc1c(SCC(=O)O)nc(N2CCCCC2)c2c1CCCC2 | 10.5% |
| O=C(CCCN1C(=O)/C(=C\c2ccccc2)SC1=S)Nc1ccc(O)cc1 | 7.95% |
